This is one part of the list.
Legend:
HSkMC = human skeletal muscle cells; assay: cytotoxicity call (relative viability < 0.9); settings: 10 µM
HepG2 = assay: cytotoxicity call (relative viability < 0.9); settings: 10 µM
S. aureus RN4220 = assay: growth inhibition call (relative growth <= 0.2); settings: 50 µM

Structure (SMILES) | cytotoxicity call (HSkMC) | cytotoxicity call (HepG2) | growth inhibition call (S. aureus RN4220)
C[C@@H]1CCCCO[C@H](CN(C)C(=O)Nc2ccc(C(F)(F)F)cc2)[C@H](C)CN([C@@H](C)CO)C(=O)c2cc(NC(=O)c3ccccc3)ccc2O1 | inactive | inactive | inactive
C[C@H]1CN([C@@H](C)CO)C(=O)c2c(c3ccccc3n2C)-c2ccccc2CO[C@@H]1CN(C)C(=O)Nc1ccc2c(c1)OCO2 | inactive | inactive | inactive
O=C(C[C@H]1C[C@H]2c3cc(NS(=O)(=O)c4ccc(F)cc4)ccc3O[C@H]2[C@@H](CO)O1)NCC(F)(F)F | inactive | inactive | inactive
COc1cccc(CNC(=O)C[C@@H]2C=C[C@@H](NC(=O)C3CCOCC3)[C@@H](CO)O2)c1 | inactive | inactive | inactive
COc1ccc(-c2cnc3c(c2)C(=O)N([C@H](C)CO)C[C@H](C)[C@H](CN(C)Cc2cccc(C(F)(F)F)c2)O3)cc1 | inactive | inactive | inactive
C[C@@H]1CN([C@H](C)CO)C(=O)c2cccc(NS(C)(=O)=O)c2O[C@H]1CN(C)C(=O)Nc1ccccc1 | inactive | inactive | inactive
C[C@H](CO)N1C[C@H](C)[C@@H](CN(C)C(=O)C2CCOCC2)Oc2cc(C3=CCCCC3)ccc2S1(=O)=O | inactive | inactive | inactive
C[C@@H]1CN([C@@H](C)CO)C(=O)Cc2cc(NC(=O)Cc3ccccc3)ccc2O[C@H]1CN(C)S(=O)(=O)c1ccccc1 | inactive | inactive | inactive
CN(C)CC(=O)N1[C@@H]2c3ccc(-c4ccncc4)c(=O)n3C[C@H]1[C@H](CO)[C@H]2C(=O)NC1CCC1 | inactive | inactive | inactive
COc1ccc(NC(=O)N(C)C[C@H]2Oc3c(NC(=O)C4CCOCC4)cccc3C(=O)N([C@@H](C)CO)C[C@@H]2C)cc1 | inactive | inactive | inactive
C[C@@H]1CCCCO[C@@H](CN(C)C(=O)Cc2ccccc2)[C@@H](C)CN([C@@H](C)CO)C(=O)c2cc(NC(=O)c3ccccc3)ccc2O1 | inactive | inactive | inactive
Cc1noc(C)c1NC(=O)N(C)C[C@@H]1OCCCC[C@H](C)Oc2ccc(NC(=O)C3CCCCC3)cc2C(=O)N([C@@H](C)CO)C[C@@H]1C | inactive | inactive | inactive
CCCNC(=O)N(C)C[C@@H]1Oc2ncc(-c3ccc(C(=O)N(C)C)cc3)cc2C(=O)N([C@H](C)CO)C[C@H]1C | inactive | inactive | inactive
COC(=O)c1ccccc1N(C)S(C)(=O)=O | inactive | inactive | inactive
NC(=O)c1ccccc1O | inactive | inactive | inactive
CC(C)C#Cc1cnc2c(c1)C(=O)N([C@@H](C)CO)C[C@H](C)[C@@H](CN(C)S(=O)(=O)c1cn(C)cn1)O2 | inactive | inactive | inactive
C[C@H](CO)N1C[C@H](C)[C@@H](CN(C)Cc2ccc(C(=O)O)cc2)Oc2c(NC(=O)c3ccc(-c4nccs4)cc3)cccc2C1=O | inactive | inactive | inactive
CON(C)c1nc(Oc2ccc(=O)[nH]n2)nc(N(C)C)n1 | inactive | inactive | inactive
C[C@H](NC(=O)N(C)C[C@@H]1OCc2ccccc2-c2ccccc2C(=O)N([C@H](C)CO)C[C@H]1C)c1ccccc1 | inactive | inactive | inactive
O=C(CCCCC(=O)N/N=C/[C@@H](O)[C@H](O)[C@H](O)CO)NO | inactive | inactive | inactive

Structure (SMILES) | cytotoxicity call (HSkMC) | cytotoxicity call (HepG2) | growth inhibition call (S. aureus RN4220)
CC(C)(C)S(=O)N1Cc2cc(C(=O)NCc3ccc4c(c3)OCO4)nc(-c3cccc(-c4cccc(F)c4)c3)c2[C@@H]1CCO (some centres undefined) | inactive | active | inactive
C[C@@H]1CN([C@@H](C)CO)C(=O)c2cccc(NC(=O)Nc3ccc(C(F)(F)F)cc3)c2O[C@@H]1CN(C)S(C)(=O)=O | inactive | inactive | inactive
N=C(N)SCCc1cnc[nH]1 | inactive | inactive | inactive
COc1ccc(CN(C)C[C@H]2Oc3c(NC(=O)Nc4ccc(C(F)(F)F)cc4)cccc3C(=O)N([C@@H](C)CO)C[C@H]2C)cc1 | inactive | active | inactive
C[C@@H]1CN([C@@H](C)CO)C(=O)c2cc(NS(=O)(=O)c3ccc(Cl)cc3)ccc2O[C@H]1CN(C)S(C)(=O)=O | inactive | inactive | inactive
CS(=O)(=O)NCc1nnnn1-c1ccc(F)c(F)c1 | inactive | inactive | inactive
C=C(C)C(=O)NC(=O)/C=C/C | inactive | inactive | inactive
CC1CCC2C(C)(CO)C(O)CCC2(C)C12CCC(CO)(CCO)O2 (centres undefined) | inactive | inactive | inactive
CC(C)NC(=O)Nc1cccc2c1O[C@H](CN(C)S(=O)(=O)c1ccccc1)[C@H](C)CN([C@@H](C)CO)C2=O | inactive | inactive | inactive
Cc1ccc(S(=O)(=O)N(C)C[C@@H]2Oc3ccc(NS(=O)(=O)c4ccc(F)cc4)cc3C(=O)N([C@@H](C)CO)C[C@@H]2C)cc1 | inactive | inactive | inactive
C[C@@H]1CN([C@H](C)CO)C(=O)c2cc(C#Cc3ccccn3)cnc2O[C@@H]1CN(C)C(=O)CCN1CCCCC1 | inactive | inactive | inactive
C[C@H]1CN([C@@H](C)CO)C(=O)c2cccc(NC(=O)c3nc4ccccc4s3)c2O[C@@H]1CN(C)Cc1ccc(C(F)(F)F)cc1 | active | inactive | inactive
COc1ccc2c3c([nH]c2c1)[C@H](CO)N(CC1CCCC1)C[C@]13CCN(CC1)C(=O)Nc1cccc(c1)F | inactive | inactive | inactive
Cc1noc(C)c1NC(=O)Nc1cccc2c1O[C@@H](CN(C)Cc1ccc(C(F)(F)F)cc1)[C@@H](C)CN([C@H](C)CO)C2=O | inactive | inactive | inactive
C[C@@H]1CN([C@H](C)CO)C(=O)c2cc(NC(=O)Cc3ccccc3)ccc2O[C@H]1CN(C)C(=O)Nc1ccc(C(F)(F)F)cc1 | inactive | inactive | inactive
C[C@H](CO)N1C[C@H](C)[C@H](CN(C)S(=O)(=O)c2ccc(F)cc2)Oc2ncc(C#CCN(C)C)cc2C1=O | inactive | inactive | inactive
COc1ccc(COCC23Oc4ccccc4[C@H]([C@H]2CO)n2c(c4ccccc4c(-c4ccccc4)c2=O)N3C)cc1 | inactive | active | inactive
O=C1C[C@]2(c3ccc([N+](=O)[O-])cc3)C(=O)N(Cc3ccccc3)c3cc(CO)ccc3[C@H]2N1CC12CC3CC(CC(C3)C1)C2 | inactive | inactive | inactive
CC(C)NC(=O)N(C)C[C@@H]1Oc2ccc(NC(=O)CCN3CCOCC3)cc2C(=O)N([C@H](C)CO)C[C@@H]1C | inactive | inactive | inactive
COc1ccc(S(=O)(=O)Nc2ccc3c(c2)C(=O)N([C@@H](C)CO)C[C@H](C)[C@H](CN(C)Cc2ccc(Cl)c(Cl)c2)OCCCC[C@@H](C)O3)cc1 | active | active | inactive

Structure (SMILES) | cytotoxicity call (HSkMC) | cytotoxicity call (HepG2) | growth inhibition call (S. aureus RN4220)
O=c1c(O)nnc2n1CCN2c1ccccc1 | inactive | inactive | inactive
COc1ccc(S(=O)(=O)N(C)C[C@@H]2OCCCC[C@@H](C)Oc3ccc(NC(=O)CCC(F)(F)F)cc3C(=O)N([C@H](C)CO)C[C@H]2C)cc1 | inactive | inactive | inactive
COc1ccc(S(=O)(=O)Nc2cccc3c2O[C@H](CN(C)Cc2ccc(Oc4ccccc4)cc2)[C@@H](C)CN([C@H](C)CO)C3=O)cc1 | inactive | inactive | inactive
CCOC(=O)Cn1cc(F)c(=O)[nH]c1=O | inactive | inactive | inactive
COc1ccc(NC(=O)Nc2ccc3c(c2)C(=O)N([C@@H](C)CO)C[C@@H](C)[C@H](CN(C)S(=O)(=O)c2ccc(OC)cc2)OCCCC[C@@H](C)O3)cc1 | inactive | inactive | inactive
CC(C)CNC(=O)C(=O)NC[C@H]1OCCN1S(=O)(=O)c1ccc2c(c1)OCCO2 | inactive | inactive | inactive
Cc1noc(C)c1NC(=O)N[C@@H]1CC[C@H](CC(=O)NCCCN(C)C)O[C@@H]1CO | inactive | inactive | inactive
CCNC(=O)C[C@@H]1CC[C@H](NC(=O)C2CCOCC2)[C@@H](CO)O1 | inactive | inactive | inactive
COc1ccc(C(=O)Nc2cccc(CN3C(=O)[C@]4(O[C@H](CC(=O)N5CCC[C@H]5CO)[C@@H]([Si](C)(C)c5ccc(OC)cc5)[C@@H]4C)c4ccccc43)c2)cc1 | inactive | inactive | inactive
CCCCC/C=C/C/C=C/C/C=C/C/C=C/CCCC(=O)O[C@H](CO)COC(=O)CCCCCCCCCCCCCCCCC | inactive | inactive | inactive
C[C@H](CO)N1C[C@H](C)[C@H](CN(C)Cc2ccncc2)Oc2c(NS(=O)(=O)c3ccc(F)cc3)cccc2C1=O | inactive | inactive | inactive
CN(C)CCC=C1c2ccccc2COc2ccccc21.Cl | inactive | active | inactive
CC(=O)N1CCN(CCOc2ccc(C3CCN(C4=Nn5c(nnc5C(F)(F)F)CC4)CC3)cc2)CC1 | inactive | active | inactive
CC(C)CC#Cc1cnc2c(c1)C(=O)N([C@H](C)CO)C[C@@H](C)[C@H](CN(C)S(=O)(=O)c1cccs1)O2 | inactive | inactive | inactive
Cc1ccc(S(=O)(=O)N(C)C[C@@H]2OCCCC[C@@H](C)Oc3ccc(NC(=O)Nc4ccccc4)cc3C(=O)N([C@@H](C)CO)C[C@H]2C)cc1 | inactive | active | inactive
CO[C@@H]1CN(C)C(=O)c2cc(NS(=O)(=O)c3ccccc3C)ccc2OC[C@H](C)N(S(C)(=O)=O)C[C@H]1C | inactive | inactive | inactive
O=C(O)[C@@H]1C2C=CC3(O2)C1C(=O)N1CCS[C@H]13 (some centres undefined) | inactive | inactive | inactive
C[C@H]1CN([C@@H](C)CO)C(=O)c2cc(NS(=O)(=O)c3cccs3)ccc2O[C@H]1CN(C)Cc1ccc(Cl)c(Cl)c1 | inactive | inactive | inactive

— the antibiotic and cytotoxicity screens of Wong et al. (2023)
